Source: the supplement of paper PMC12632987
Whole data set: some 1,800 sequences, median “median log2 fold change of GCK-ALFA target abundance (FLAG IP / Myc IP barcode read proportion)” near 0.14, cut for the lowest 2% near -0.84. This is one part of the list.

B1: traf2_out_17_178_1741 (protein)
chain: SKEEILKEISKLADEMIDVSREAAEKLTELAEKEGILTPELRERLDLVARTSNLYAFEEVANELIELSKNKEEIQKLLDETTKKLRELRKKIQEAVEKLK
B2: traf2_out_13_95_1158 (protein)
chain: SKELAEKIMEIADKMLDESLKILEELLKIAEKKGKLVEEVKEALHLAETHSINEAIHKLKELSKAHPEFKEEFDEAIKKLEELRREAGREVARLIKEEKE
B3: traf2_out_11_155_755 (protein)
chain: SEKLKLLNEMNNKVQDVFDKAREEALKIAKEAAEEHPEHKEEIEKAIKENEHFSAKSFILNMIELFKELGLEEYAKKLEELLEKTQKEANKIVIETEKKL
B4: traf2_out_20_3_2231 (protein)
chain: EKLKEEAEKELEKALKQLEKLVKKADPERAKKLEELIKKLEEAKELDPVDALVVASEVRRELLLLAQEAEAEGDEELAKLLKEAAELLQRLMQLLYKIIE
B5: traf2_out_20_3_2140 (protein)
chain: EELEKELEKELKKAIELLKEAAKLADPETKAELDKLIKELKASKELSPEDRLVKLSEIRRKVRELAEKAKAKGKEELAKLLEEAADALNRAMNLVMKIIE
B6: traf2_out_15_17_1309 (protein)
chain: SAEKELNEKIREATNKVLDEHEKVLEELIEKARKEAEKAGVLEELEKLVEESKDYSVISRVQILALFAKKKGFEELAKELEEAAEKMRKDFSEAVKAAEK
B7: traf2_out_17_162_1558 (protein)
chain: SEIEKRWEKLKEELKELEKRVEALEKRLERLAELTPEEIRDLLVEASEVKRRALELAEEAEKLKEKIGEEEAQKLIDEANEIAERAQRIANTLYKALEKK
B8: traf2_out_9_17_2619 (protein)
chain: AAAAEARRAAILEVTDEILDELIEEGLITEEEAEEIRKKVREAIEAGKSVDEVRALFLGSIASILLQPDGLSVQEAQKVVGRVYRRWRELLAEREAAAAA
B9: traf2_out_1_27_999 (protein)
chain: SDKEIAERIREVLKRASELSPEERLRLAAEAVREFLGIGIGDARTLVVTLVLMEKREEDRERLLEVAEEVMRELGVSEEEIALIRRQALTAWERYQKALA
B10: traf2_out_15_17_1307 (protein)
chain: SAEEKKNEAIRKAMNEVLDKNEKRLDELVAEARAEAKKLGKLEELNALLEKTKDYSVRSRVLALAAWAKSWGLEDLAARAEAAAEEIAKEAAEAYAKVEK
B11: traf2_out_13_95_1061 (protein)
chain: SRETAKKINELADKAEEEALALLEEARAELADDPEAVAALDEAARALETRGIRAAIHILRQARDAMPEHKAEFDALIARLEAIRRDLGRKVAEIIKEEEE
B12: traf2_out_18_147_1814 (protein)
chain: TYEEAIDKLADLRERIRKLMDEIAKLTGKPEEAAKLRDILTSTSVPLEEKEAAVEKAKKEAKALGKEEAVKLLDEALALSKELREAAREANRLMIEEEEE
B13: traf2_out_15_48_1348 (protein)
chain: NIEALQKTAREIADLADEKRDEVIARLEELQKQATPEEAKILQEIADAARSGATLRDVRGLLLAAQPQLSPEIAAKVKAIAEEIDEVIREMSKLYNEVEK
B14: traf2_out_16_62_1465 (protein)
chain: EEEKEELRKKADEYIDAAQELRDTVITYVSGGDRAAALARLAALAAKYGPEVEALLAALRRAEADPANRAAYLAEADDLAVAVRTRLVKKALELEEQAKK
B15: traf2_out_11_169_854 (protein)
chain: EEEKKNREIIDKALELNDEAKEKLKKHALELAKKAGLDVEEVKAIFEKHKGKSLSAIAAALIEWFRSKGEEEVAKEVLKKYEELKEEINKEMTAFIKELK
B16: traf2_out_17_162_1622 (protein)
chain: MSIEEKLRRLEERLERLEEELKRLEELKKRIEELSKEELTDYLVEASEARREALEAIEELDKLKDKIPEEVYERLKERFEEIAERFQRIANIFYKKLEEK
B17: traf2_out_6_169_2490 (protein)
chain: SMAEELKKEAEKHLKTAKELLEIAKTIYNQAKNNKKYEKIDDYIEALETIKNSIKHHYDKAIAYYEKLGKKEEAAKLKEEKEKVLKEIEEMIKELKELKK
B18: traf2_out_18_117_1803 (protein)
chain: GELEKAQEEFKKALEEFEKVLTEAQKVAGKLIEKYPHNLPEEVTDAIVEMGELKREARLLEQLAKEHSEDLEKLKEITKRVKELTKKMKEILKKLKELLE
B19: traf2_out_17_162_1600 (protein)
chain: SELEKFKEKIEKELEELEKERKELEKKLKEIDSLSKEELTDLLVEASEKRRKALELLEKLEENKEKLDKEFYEKYKKRAEEIAEEFQRIANEIMKKLEEK

Target: T1, TRAF2, Q12933
T1 chain: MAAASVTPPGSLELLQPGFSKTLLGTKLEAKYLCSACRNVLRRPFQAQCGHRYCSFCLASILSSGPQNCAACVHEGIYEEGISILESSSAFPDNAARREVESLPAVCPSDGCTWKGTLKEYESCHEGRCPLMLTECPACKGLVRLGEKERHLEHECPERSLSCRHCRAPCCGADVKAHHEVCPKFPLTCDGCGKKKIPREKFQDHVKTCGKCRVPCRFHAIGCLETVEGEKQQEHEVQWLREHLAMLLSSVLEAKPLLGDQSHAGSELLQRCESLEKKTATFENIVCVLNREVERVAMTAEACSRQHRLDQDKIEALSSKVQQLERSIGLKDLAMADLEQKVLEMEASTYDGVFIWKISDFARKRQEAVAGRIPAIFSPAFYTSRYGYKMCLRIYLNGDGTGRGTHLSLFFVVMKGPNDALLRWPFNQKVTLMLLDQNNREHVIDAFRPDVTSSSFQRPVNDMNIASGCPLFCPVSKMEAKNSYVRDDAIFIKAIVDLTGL
Assay: median log2 fold change of GCK-ALFA target abundance (FLAG IP / Myc IP barcode read proportion) (log2 ratio); each designed protein is fused to an ALFA-tag nanobody in HEK293 cells to bring the named protein to FLAG-tagged glucokinase (GCK); Myc marks an untargeted standard; higher = target protein stabilised (more abundant)
Details: target protein: 3xFLAG-MCP-GCK-ALFA reporter; HEK293 landing pad (RPLP)
Summary of the method: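 HEK293 landing-pad cells received a recombined binder library fused to the ALFA nanobody and were induced with 2 μg mL^−1 doxycycline, then transfected with a plasmid encoding a FLAG-tagged target and a Myc-tagged standard. Lysates were collected after 48 h for anti-FLAG and anti-Myc immunoprecipitation, and the circular RNA barcodes were reverse transcribed, amplified and sequenced. Target abundance for each binder is the median log2 ratio of FLAG to Myc barcode read proportions. Barcodes had to reach a proportion of at least 10^−7 in both replicates, each binder needed at least 3 barcodes per replicate, a pseudocount of 10^−6 was applied, and the two replicates were pooled.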

| Binder | median log2 fold change |
| --- | --- |
| B1 | -0.0674 |
| B2 | -0.722 |
| B3 | 0.245 |
| B4 | 0.261 |
| B5 | 0.389 |
| B6 | 0.187 |
| B7 | 0.297 |
| B8 | -0.816 |
| B9 | -0.201 |
| B10 | 0.335 |
| B11 | -0.0287 |
| B12 | 0.248 |
| B13 | 0.215 |
| B14 | 0.162 |
| B15 | -0.0766 |
| B16 | 0.425 |
| B17 | -0.683 |
| B18 | 0.417 |
| B19 | 0.0488 |
